Data reported in the RNAGym collection of RNA variant scans (doi:10.7554/elife.90254).
Read counts are not given, so values of variants with three or more changes are uncertain.

B1: LINE1-mini (parent)
chain: GGCAGAGCUCAACACAGCGUGGCAAAGUGGCUGUGGCUAGACUGCC

Variants of: B1
Test: self-cleavage, relative activity (ratio to wild type); higher = more cleavage; in vitro, sequencing; the parent is a self-cleaving ribozyme

Row | Variant | self-cleavage
1 | C10G C42A G44C | 0
2 | A12G G19A G35U | 0.01
3 | C3G C10A G36A | 0.04
4 | C3G C10A A11U A25C C31A | 0.01
5 | C15A G29U U34G G35U | 0.05
6 | A16C C18U G33C | 0.02
7 | U9C U20G A25C G33A U38A G44A | 0
8 | C3A G17U C23A A26U C46U | 0.04
9 | A25U U43G C45A | 0.06
10 | C10A A16G U28C G30U | 0.01
11 | C8G C18A A24G A26U G27U G33U | 0.01
12 | C3U C10A A26U G35C | 0.02
13 | C8A U32A C45A | 0.09
14 | G2C C3U A11C G22U C46A | 0.09
15 | A12G A14U G27U G44A | 0.11
16 | G5U U9A A14U C31U U38A A41C C42A | 0.02
17 | G19U A24C U34A U43A | 0.03
18 | A11U U28A G35A | 0.01
19 | G2A C8G A12U A41U | 0.14
20 | G29C C37G A39C | 0.03
21 | G2U C23U G35U C42A G44C C46A | 0.03
22 | C13G C23G G36A C37A C45U | 0.07
23 | G2C U38A G40U C42U C46U | 0.14
24 | G22C G33U C45G | 0.04

Row | Variant | self-cleavage
25 | C8U U32A U38G G44U C45G | 0.12
26 | C3U G5C G36U | 0.86
27 | A6G C10A C18G | 0.03
28 | A4G A11U G27C | 0.23
29 | G7A C13A U28C U32C U43C | 0.15
30 | G17C G19A C37G | 0.03
31 | C8G G17U U20G | 0.02
32 | G2A C31A U38C | 0.17
33 | C23G C31G C37G | 0
34 | G1A C3G G27A G30C | 1.52
35 | A6G C15A C45U | 0.08
36 | A11C G27A G35C C45U | 0.02
37 | G17A C18A G21A A39U | 0.13
38 | G30U C31A U32G | 0.01
39 | C10G G17C G27A G33C | 0.03
40 | C3A A6G G7C C8A C10A A24G | 0.06
41 | C3U G17U G21A G22A G36U U43C | 0.02
42 | A24G G35C A41C | 0.03
43 | A12C G29C G35C U38G C42U | 0.02
44 | C13A A16C U38A | 0.23
45 | G27C U28C G40A | 0.05
46 | C15G G27C C46U | 0.04
47 | A12C G30C C45G | 0
48 | G19C G21U U28A U38A | 0.05

Row | Variant | self-cleavage
49 | G2U U32G G40A | 0.03
50 | A12U U28A G29C C42G G44U | 0.02
51 | C3G A12C C15A U20G A25U | 0.04
52 | C13U C18A G44U | 0.09
53 | G1C C15G G27C U34A A39U C42G | 0
54 | G19C G21A C37A G40C | 0.02
55 | G2U C15A G17U G19C C23G | 0
56 | C3G G5A G22C G33A C46A | 0.07
57 | G1A C10A G40C C42A C45U | 0.28
58 | A6C U32G G44A C45A | 0.03
59 | C8U G33C G44U | 0.14
60 | C3A U9C A14C | 0.03
61 | A24C A39U C42G C45A | 0.03
62 | A6U U20A G29U C42A | 0.01
63 | A4G U9A G33A | 0.14
64 | G2U G5C A6G U34G | 0.01
65 | C8A C15G G19U A25G A26G G29A C31A G33U | 0.1
66 | A14G C15U A25G C46U | 0.06
67 | A4G A11C G19C C23U A24C C46A | 0.01
68 | U9C A12G G17U | 0.01
69 | G5U C23A G27C C42U | 0.02
70 | G1U G5C C18G U20C G22C | 0
71 | C3A G7A C45A | 0.33
72 | A14U A24U A26C | 0.27

Row | Variant | self-cleavage
73 | G2A G7U A14C | 0.6
74 | U9A C10U A11G A16C C23U A41U | 0
75 | C13A A25C A41G | 0.03
76 | U20C G40U A41U | 0.3
77 | C3U A6C C8U G21U G33U | 0.07
78 | A12U U20G G22A A24G G29U | 0.26
79 | A12U U20A G27A | 0.92
80 | C8A U9A A11G G22U G29U | 0.01
81 | C15U A25G G30A | 0.06
82 | C15U G27C U28A C45U | 1.48
83 | C3A G7C G22A | 0.1
84 | C18U C37U A41U | 0.05
85 | G1U G33U C45A | 0.04
86 | C8U A14C G40U | 0.2
87 | A6G G27U G29C C45G | 0.1
88 | C10A C23A U43A C45A | 0.03
89 | A12U G21C G22U | 0
90 | C15A U28C A41U | 0.06
91 | C10A A16G A25C | 0.02
92 | A6G G29C U38C | 0
93 | G5C A14U C15A C45U | 0.05
94 | G7A C10A A11C C18U C23U G44U C45A | 0.01
95 | C3G A6C G7A A11G | 0.05
96 | A6C A24G G35A | 0.07

Row | Variant | self-cleavage
97 | U9G A25C C31A C37U | 0.07
98 | C3A G22C G36U A41U G44A | 0.07
99 | A11U C13U G30A G33U G40A | 0
100 | G1A G7C C15A U32G C45U | 0.21
101 | G21U G29A C37A | 0.03
102 | U9G C10A C13U U20C G29A C31A | 0.02
103 | G29A C31A U32C | 0.06
104 | G7A G19A U28G | 0.06
105 | G5A G27U C46U | 0.03
106 | G7A C13A G19U G30A G33U | 0.11
107 | U9G G29U C45G | 0.16
108 | C18U G21C C42U | 0.53
109 | C13A G21C C37G G40C | 0.09
110 | G1U G36U C46A | 0.01
111 | G1A A11U G40C | 0
112 | A14G C18A G27C | 0.03
113 | G21U U34A A39C G40U | 0.03
114 | G7U G21A A41U | 0.14
115 | G21U U34C U43A | 0.02
116 | U9G C31U C42A C45A | 0.07
117 | U20C G30C C31A | 0.81
118 | G1A A24U G27U U38G U43A | 0.03
119 | A16C G17U C42G C45U | 0.02
120 | C18A U28G G33C C42A | 0

Row | Variant | self-cleavage
121 | G21C A24U G40A A41U | 0.25
122 | G2C G30C C31U A41U | 0.23
123 | A4C C10U C13G G27A C31U U43A | 0.01
124 | A16U U28C A41U | 0.04
125 | C15A G21U G33U C37A | 0.08
126 | G1C G2U U9A C13A G21C C46U | 0.09
127 | C3G C10U G21C G27U G30C G35C | 0.07
128 | G5C C10A G35A | 0.04
129 | G2U G22U G27A C37U C42A G44A | 0.35
130 | G5C U9A A26C G33A U34A C46A | 0.09
131 | G5U A11U G22C C23U U34G | 0.01
132 | A12C G27C A39C | 0.01
133 | G5A C31G U32A C37A | 0.02
134 | G2C C8U C37U | 0.08
135 | G17A G19A A26U C37A C46U | 0.02
136 | A14G A26C U32A | 0
137 | A6G G19U C31G G40C | 0.06
138 | U9C G33U C37U | 0.01
139 | C3G A4U C13A U20G A25G G33A | 0.08
140 | A14G A24G G36A | 0.07
141 | C3A C8A A12G C23U G27C G33A G36A | 0.75
142 | C3G A25C G29U G44C | 0.7
143 | U20G G22U G35U A39G | 0.03
144 | A4C A6G C10A C23U A26U U38A | 0.02

Row | Variant | self-cleavage
145 | A11U C23A U32G G33C G36C U38G | 0
146 | C3U C15U C45G | 0.09
147 | A4C G7A C13G C45A | 0.31
148 | A4C C13A G27A C31G | 0.06
149 | U20G U28C G35C G36A C37G | 0.01
150 | C13U G22U C45A | 0.06
151 | C3A A12C C18G U38C | 0.05
152 | A6G A11U U43A | 0.01
153 | G35U C42A C46U | 0.11
154 | G7A G19A C45A | 0.21
155 | A4U C13G C37U | 0.04
156 | C10U G21C G22A U32G G35U A39U | 0.02
157 | A4C G29C C45G | 0.15
158 | C10A G36A A41C | 0.02
159 | U20C G22U G35U | 0.02
160 | C3U G5U G17U G35U | 0.1
161 | C8A A11G G21A | 0.06
162 | C3G C13U C15G G30U | 0.07
163 | G2A G33U G44C | 0.05
164 | C13U C18G G19A | 0.05
165 | C23A G27U C37U | 0.02
166 | G5U A14C G27C | 0.01
167 | G2C G7A A24U | 0.14
